Each structure is given as a SMILES string. This is one part of the list. Most values come without repeats; read them as rough.
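Note: cells treated in 1,536-well plates, then fixed and DAPI-stained, with nuclei counted from automated high-throughput microscope images.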

In this experiment the test system is SkMel2. Kind of experiment: cell count relative to DMSO control; melanoma cells; higher = more viable cells. As to conditions: library dose: standard library concentration; 72 h.
Regarding `C=C(c1ccc(C(=O)O)cc1)c1cc2c(cc1C)C(C)(C)CCC2(C)C` [Bexarotene] + Cn1cc(/C=C2\C(=O)Nc3cccnc32)c2ccccc21 [GW441756] (first compound 10 µM, partner dose 2 µM), the cell count turned out to be 79%.

In turn, `C=C(c1ccc(C(=O)O)cc1)c1cc2c(cc1C)C(C)(C)CCC2(C)C` [Bexarotene] + N#Cc1c(O)c2c(-c3ccc(-c4ccccc4O)cc3)csc2[nH]c1=O [A769662] (first compound 10 µM, partner dose 10 µM) came in with a cell count of 82.5%.

In turn, `C=C(c1ccc(C(=O)O)cc1)c1cc2c(cc1C)C(C)(C)CCC2(C)C` [Bexarotene] + Cc1cc([N+](=O)[O-])ccc1NS(=O)(=O)c1cc(Cl)ccc1Cl [FH535] (first compound 10 µM, partner dose 5 µM) came in with a cell count of 73.6%.

Compound `C=C(c1ccc(C(=O)O)cc1)c1cc2c(cc1C)C(C)(C)CCC2(C)C` [Bexarotene] + CCN(CC)CCCCNc1ncc2cc(-c3cc(OC)cc(OC)c3)c(NC(=O)NC(C)(C)C)nc2n1 [PD173074] (first compound 10 µM, partner dose 0.5 µM) had a cell count of 83.9%.

Take `C=C(c1ccc(C(=O)O)cc1)c1cc2c(cc1C)C(C)(C)CCC2(C)C` [Bexarotene] + CC(C)CCN1c2nc(Nc3cc(F)c(O)c(F)c3)ncc2N(C)C(=O)C1C [BID1870] (first compound 10 µM, partner dose 1 µM): the cell count amounted to 66.3%.

`CS(=O)(=O)c1ccc(C(=O)Nc2ccc(Cl)c(-c3ccccn3)c2)c(Cl)c1` [vismodegib] + O=C(Nc1ccccc1)c1cc([N+](=O)[O-])ccc1Cl [GW9662] (first compound 5 µM, partner dose 10 µM): the cell count was found to be 95%.

Take `CS(=O)(=O)c1ccc(C(=O)Nc2ccc(Cl)c(-c3ccccn3)c2)c(Cl)c1` [vismodegib] + c1cc(-c2cnn3cc(-c4ccc(OCCN5CCCCC5)cc4)cnc23)ccn1 [Dorsomorphin] (first compound 5 µM, partner dose 2 µM): the cell count was 83.4%.

As to `CN(c1ncccc1CNc1nc(Nc2ccc3c(c2)CC(=O)N3)ncc1C(F)(F)F)S(C)(=O)=O` + O=C1NC(=O)/C(=C/c2ccc(-c3ccc(F)cc3O)o2)S1 [AS252424] (first compound 0.4 µM, partner dose 5 µM), the cell count came out at 73.7%.

The compound `CS(=O)(=O)c1ccc(C(=O)Nc2ccc(Cl)c(-c3ccccn3)c2)c(Cl)c1` [vismodegib] + CCN(CC)CCCCNc1ncc2cc(-c3cc(OC)cc(OC)c3)c(NC(=O)NC(C)(C)C)nc2n1 [PD173074] (first compound 5 µM, partner dose 0.5 µM) had a cell count of 117%.

Turning to `C=C(c1ccc(C(=O)O)cc1)c1cc2c(cc1C)C(C)(C)CCC2(C)C` [Bexarotene] + O=c1cc(-c2cccc3c2Sc2ccccc2S3)oc(N2CCOCC2)c1 [KU55933] (first compound 10 µM, partner dose 5 µM), the cell count came out at 89.6%.

`NC1(c2ccc(-c3nc4ccn5c(=O)[nH]nc5c4cc3-c3ccccc3)cc2)CCC1` + O=c1cc(-c2cccc3c2Sc2ccccc2S3)oc(N2CCOCC2)c1 [KU55933] (first compound 2 µM, partner dose 5 µM) came in with a cell count of 54%.

The compound `NC1(c2ccc(-c3nc4ccn5c(=O)[nH]nc5c4cc3-c3ccccc3)cc2)CCC1` + COc1cc2ncnc(Nc3ccc(Oc4ccccc4)cc3)c2cc1OC [SrcI1] (first compound 2 µM, partner dose 10 µM) gave a cell count of 46.5%.

`CCCS(=O)(=O)Nc1ccc(F)c(C(=O)c2c[nH]c3ncc(Cl)cc23)c1F` + COc1ccc(COc2ccc(Cc3cnc(N)nc3N)cc2OC)cc1 [GW2580] (first compound 0.4 µM, partner dose 5 µM) came in with a cell count of 103%.

In turn, `CCCS(=O)(=O)Nc1ccc(F)c(C(=O)c2c[nH]c3ncc(Cl)cc23)c1F` + Oc1nc(-c2ccc(C(F)(F)F)cc2)nc2c1CSCC2 [XAV939] (first compound 0.4 µM, partner dose 10 µM) gave a cell count of 80.6%.

Compound `CN(c1ncccc1CNc1nc(Nc2ccc3c(c2)CC(=O)N3)ncc1C(F)(F)F)S(C)(=O)=O` + COc1cc(N2CCC(N3CCN(C)CC3)CC2)ccc1Nc1ncc(Cl)c(Nc2ccccc2S(=O)(=O)C(C)C)n1 [NVP-TAE684] (first compound 0.4 µM, partner dose 0.4 µM) showed a cell count of 72.3%.

The compound `CCCS(=O)(=O)Nc1ccc(F)c(C(=O)c2c[nH]c3ncc(Cl)cc23)c1F` + c1cc(-c2cnn3cc(-c4ccc(OCCN5CCCCC5)cc4)cnc23)ccn1 [Dorsomorphin] (first compound 0.4 µM, partner dose 2 µM) gave a cell count of 72.3%.

Turning to `NC1(c2ccc(-c3nc4ccn5c(=O)[nH]nc5c4cc3-c3ccccc3)cc2)CCC1` + O=C1NC(=O)/C(=C/c2ccc(-c3ccc(F)cc3O)o2)S1 [AS252424] (first compound 2 µM, partner dose 5 µM), the cell count came to 68.4%.

As for `CCCS(=O)(=O)Nc1ccc(F)c(C(=O)c2c[nH]c3ncc(Cl)cc23)c1F` + Cc1cc([N+](=O)[O-])ccc1NS(=O)(=O)c1cc(Cl)ccc1Cl [FH535] (first compound 0.4 µM, partner dose 5 µM), the cell count was determined as 104%.

Compound `CN(c1ncccc1CNc1nc(Nc2ccc3c(c2)CC(=O)N3)ncc1C(F)(F)F)S(C)(=O)=O` + CC(C)CCN1c2nc(Nc3cc(F)c(O)c(F)c3)ncc2N(C)C(=O)C1C [BID1870] (first compound 0.4 µM, partner dose 1 µM) gave a cell count of 64.9%.
